Laboratory results: the supplement of paper PMC3334620
Whole data set: some 33,000 sequences, median “E-score (-0.5 to 0.5)” near -0.032, cut for the highest 2% near 0.36. The list shows a part of the results.

Each sequence was assayed against T1, Sko1 (UniProt Q02100) (assay: PBM E-score (8-mer binding enrichment) (E-score (-0.5 to 0.5)); higher = stronger / more preferred TF binding; most listed sequences are background and not binding sites). Settings: protein concentration: 200 nM; construct: GST-full length.
T1 sequence: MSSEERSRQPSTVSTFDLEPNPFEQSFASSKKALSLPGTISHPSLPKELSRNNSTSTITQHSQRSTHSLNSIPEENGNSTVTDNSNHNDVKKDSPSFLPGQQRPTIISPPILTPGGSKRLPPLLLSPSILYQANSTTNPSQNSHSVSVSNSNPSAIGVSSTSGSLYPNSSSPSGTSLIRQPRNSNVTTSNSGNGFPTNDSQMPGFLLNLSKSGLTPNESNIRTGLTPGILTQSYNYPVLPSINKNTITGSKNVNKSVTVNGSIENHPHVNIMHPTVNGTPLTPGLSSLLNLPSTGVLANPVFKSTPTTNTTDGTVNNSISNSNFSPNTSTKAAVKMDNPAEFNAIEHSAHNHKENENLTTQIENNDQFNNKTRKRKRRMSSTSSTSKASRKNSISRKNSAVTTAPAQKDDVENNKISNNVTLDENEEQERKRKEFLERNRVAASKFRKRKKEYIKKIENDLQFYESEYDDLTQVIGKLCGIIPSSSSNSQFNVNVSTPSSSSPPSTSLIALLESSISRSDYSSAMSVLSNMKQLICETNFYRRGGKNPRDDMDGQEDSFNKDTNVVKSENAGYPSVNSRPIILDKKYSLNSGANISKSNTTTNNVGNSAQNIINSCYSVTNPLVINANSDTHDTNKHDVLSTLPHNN
How it was run: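 GST-tagged yeast TFs (full-length or DNA-binding domain) were made by PURExpress in vitro transcription/translation and applied at about 100-200 nM to universal all-10-mer Agilent arrays. The arrays were made double-stranded by primer extension, on fresh or once-stripped slides. Bound protein was detected with fluorescent anti-GST, and scans were normalised with masliner. Each ungapped eight-base word, pooled with its reverse complement, received an E-score (modified Wilcoxon-Mann-Whitney statistic) from the Universal PBM Analysis Suite.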

| Sequence | PBM E-score |
| --- | --- |
| GTACGTAA | 0.487 |
| AACAGAGT | 0.18 |
| AATGCGAA | 0.0684 |
| CCCAAGAA | -0.146 |
| ATAACTCG | 0.0475 |
| GTTATAAC | 0.154 |
| AATCCAAT | 0.0698 |
| GCCATAAA | 0.0435 |
| GGTAAACC | -0.194 |
| GTCACGCA | 0.25 |
| ACCACCGG | -0.114 |
| CAGCAAGC | -0.223 |
| ACTCACTC | 0.0504 |
| CACCACTC | -0.178 |
| GAGCCCCA | -0.278 |
| AATTGAAC | 0.0583 |
| AGCGGCAA | -0.15 |
| ACTATAGA | -0.0143 |
| ACCCCTGG | -0.301 |
| CCATACAG | -0.0745 |
| AGCGCGCA | 0.0269 |
| AATCCCTC | 0.0478 |
| CGAGCTTC | 0.0178 |
| CCATACTC | -0.336 |

| Sequence | PBM E-score |
| --- | --- |
| CATTTGCA | 0.111 |
| AAGTTGAA | -0.0103 |
| AGAACCTA | 0.0741 |
| ATGTCTCG | 0.0151 |
| GCCTATGA | -0.0512 |
| ACCATCTA | -0.134 |
| AGTTCAAG | 0.0773 |
| CTGTGGAA | -0.164 |
| CAAGATCG | 0.153 |
| CTGTAAGC | -0.0774 |
| GGTGCATA | -0.0153 |
| GCTAATCC | 0.0126 |
| CACTGGGC | -0.304 |
| ATGTAATA | 0.376 |
| TTGAGAAA | 0.18 |
| GCGGACCA | -0.0942 |
| CTTGAACA | 0.0589 |
| CAAGAGCC | -0.168 |
| AACGTCGC | 0.233 |
| AAGCCGGA | -0.0802 |
| AATCCGGT | 0.00046 |
| CGATGGCG | -0.012 |
| CAGGGGAC | -0.381 |
| ACCTCCCG | -0.15 |

| Sequence | PBM E-score |
| --- | --- |
| TATCTGCA | 0.0664 |
| AAATTCTT | -0.0295 |
| TACAAGGA | -0.115 |
| GGCTCCTA | -0.247 |
| CTTCACCC | -0.125 |
| ACGTGCAA | 0.35 |
| GTTACGAA | 0.378 |
| GAAACCAC | 0.0504 |
| CAGCCCGC | -0.38 |
| CAAACACG | 0.305 |
| GACTAGAC | -0.107 |
| TGCGCTAA | 0.0952 |
| GCCGTTCC | -0.284 |
| ATTGGCAG | -0.286 |
| TATCTTGA | -0.00169 |
| CAGCAAAG | -0.0267 |
| ACGCTGCC | -0.138 |
| AGTCTCTC | -0.245 |
| GTCTCGAA | -0.136 |
| AAACAATA | 0.311 |
| CCTAAGCC | -0.224 |
| CAAACCAG | -0.071 |
| CCCGAACC | -0.263 |
| GGTAACAC | 0.0477 |

| Sequence | PBM E-score |
| --- | --- |
| CCGGTGCG | -0.0349 |
| CAGTGGTC | -0.178 |
| GGTCCTGA | -0.102 |
| CCTTATAC | 0.00093 |
| CAGTCACG | 0.105 |
| CCTGGTAG | -0.288 |
| CACACGCA | 0.22 |
| CACACCGG | -0.268 |
| CTGCTGGC | -0.365 |
| AAATATTT | 0.257 |
| ACCGTCCG | -0.304 |
| CCACTCTA | -0.0553 |
| AATTTTCA | 0.0476 |
| GACACTCA | -0.0269 |
| ACAGCTTG | 0.114 |
| ACTCCACT | 0.05 |
| CTGCCAGA | -0.254 |
| CTTTCACC | 0.109 |
| TAATGCGA | 0.131 |
| ATATACCG | 0.0491 |
| CGCAGCTA | 0.0509 |
| AGTACACC | -0.0855 |
